The values that follow come from patent US7181349 (dated 2007).

The assay concerns the target T1, human insulin receptor (HIR), solubilized from human placental membranes and purified (human).
T1 construct: also called insulin receptor protein
Briefly: receptor-binding assay with purified human insulin receptor, compared to native bovine insulin (FIG. 1).

B1: Nanogold-bovine-insulin (NG-BI), bovine insulin derivatized at B-chain Phe1 with one mono-NHS-Nanogold cluster (ligand)
chain 1: not shown
chain 2: not shown
modifications: Nanogold cluster (1.4 nm, 70 gold atoms) on Phe1 of the B chain; the filing does not say which of SEQ ID NO:11 and 12 is the B chain
notes: The label sits only on the B chain; also called Nanogold-insulin; gold-labeled insulin
B1: the binding result is recorded as “binds”.
